This is an account of results in PMC8428793.

Protein sequences, listed by entry. Tags and fused reporters are not part of them. Lines headed by an entry give the natural chain unless they say otherwise; changes in a name come on top. Residues count along the entry.
UniProt Q9UK41: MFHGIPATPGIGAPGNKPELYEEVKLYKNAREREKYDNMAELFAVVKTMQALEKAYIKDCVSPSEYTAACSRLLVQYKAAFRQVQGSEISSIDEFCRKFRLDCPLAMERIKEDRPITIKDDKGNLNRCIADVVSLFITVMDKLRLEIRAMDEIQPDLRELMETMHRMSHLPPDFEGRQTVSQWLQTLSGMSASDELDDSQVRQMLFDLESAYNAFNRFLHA
GST-VPS28 NT (1-120 aa): residues 1-120 of Q9UK41
UniProt Q8NEZ2: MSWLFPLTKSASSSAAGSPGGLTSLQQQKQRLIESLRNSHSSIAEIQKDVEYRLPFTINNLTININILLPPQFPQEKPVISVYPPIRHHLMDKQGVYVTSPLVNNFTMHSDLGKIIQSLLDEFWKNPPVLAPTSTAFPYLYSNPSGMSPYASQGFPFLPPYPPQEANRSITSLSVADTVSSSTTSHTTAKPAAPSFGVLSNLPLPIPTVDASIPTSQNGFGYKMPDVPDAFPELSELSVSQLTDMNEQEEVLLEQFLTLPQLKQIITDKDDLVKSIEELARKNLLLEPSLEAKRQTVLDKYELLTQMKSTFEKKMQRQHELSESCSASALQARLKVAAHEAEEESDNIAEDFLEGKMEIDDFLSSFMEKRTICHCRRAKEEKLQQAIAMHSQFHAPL
UniProt A5D8V6: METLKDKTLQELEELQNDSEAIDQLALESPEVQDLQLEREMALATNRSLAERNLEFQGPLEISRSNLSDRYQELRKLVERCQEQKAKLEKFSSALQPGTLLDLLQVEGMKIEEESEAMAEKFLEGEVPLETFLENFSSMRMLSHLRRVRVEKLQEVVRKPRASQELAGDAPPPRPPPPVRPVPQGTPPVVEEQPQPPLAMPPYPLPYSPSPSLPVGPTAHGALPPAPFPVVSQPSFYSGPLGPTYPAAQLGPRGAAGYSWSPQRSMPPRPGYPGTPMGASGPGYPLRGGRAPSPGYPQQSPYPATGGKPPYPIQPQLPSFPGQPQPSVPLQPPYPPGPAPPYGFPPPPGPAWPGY

These are yes or no findings as the source states them, for the method shown. For some of these results: Binding seen in cells or lysates may run through a third protein. Some binding calls cover weakened binding; strength is not graded here. Tags and fused reporters may be left off the sequences shown.

Assay [1] deals with T1, AKTIP fused to the Gal4 DNA-binding domain (human) (UniProt Q9H8T0).
T1 sequence: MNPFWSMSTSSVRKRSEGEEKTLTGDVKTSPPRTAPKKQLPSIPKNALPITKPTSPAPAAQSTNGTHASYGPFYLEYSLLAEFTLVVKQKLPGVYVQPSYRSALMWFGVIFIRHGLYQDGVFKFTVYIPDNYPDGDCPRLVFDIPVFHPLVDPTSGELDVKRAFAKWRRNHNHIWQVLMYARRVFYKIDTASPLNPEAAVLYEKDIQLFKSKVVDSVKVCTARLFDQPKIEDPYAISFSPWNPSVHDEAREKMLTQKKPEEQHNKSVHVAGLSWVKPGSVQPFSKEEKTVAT
As to the kind of experiment: two-hybrid; yeast Y190 co-transformed with AKTIP-Gal4 DNA-binding domain (pGBKT7) and VP16 activation domain fusions (pHB18); liquid beta-galactosidase (LacZ) assay.

The target of assay [2] is GST-VPS28 NT (1-120 aa) (human) (UniProt Q9UK41). The experiment in a line: pull-down; GST pull-down: 293T co-transfected with GST or GST fusion and tagged AKTIP, 48 hrs; NP40 lysis buffer (150mM NaCl, 50mM Tris pH7.5, 1mM EDTA); glutathione-Sepharose beads 3hrs at 4°C; Western blot. For orientation: A western blot detects proteins with antibodies after separation by electrophoresis.

In assay [3] the target is GST-VPS28 (full length) (human) (UniProt Q9UK41). The description is as above.
The target of a further assay is VPS37A-GST (human) (UniProt Q8NEZ2). Described as above.
The target of another assay is T2, VPS37B-GST (human) (UniProt Q9H9H4).
T2 sequence: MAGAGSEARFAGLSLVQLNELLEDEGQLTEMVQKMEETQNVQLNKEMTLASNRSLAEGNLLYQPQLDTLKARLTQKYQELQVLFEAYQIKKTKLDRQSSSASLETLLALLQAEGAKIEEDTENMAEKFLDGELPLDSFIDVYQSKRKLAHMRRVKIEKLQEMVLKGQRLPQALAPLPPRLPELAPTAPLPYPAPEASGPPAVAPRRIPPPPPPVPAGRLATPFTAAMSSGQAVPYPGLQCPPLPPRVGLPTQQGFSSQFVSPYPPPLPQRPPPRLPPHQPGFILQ
The assay is described as above.

Another assay addresses GST-IST1 (human) (UniProt P53990). Described as above.
The next assay addresses T3, VPS37D-GST (human) (UniProt Q86XT2).
T3 sequence: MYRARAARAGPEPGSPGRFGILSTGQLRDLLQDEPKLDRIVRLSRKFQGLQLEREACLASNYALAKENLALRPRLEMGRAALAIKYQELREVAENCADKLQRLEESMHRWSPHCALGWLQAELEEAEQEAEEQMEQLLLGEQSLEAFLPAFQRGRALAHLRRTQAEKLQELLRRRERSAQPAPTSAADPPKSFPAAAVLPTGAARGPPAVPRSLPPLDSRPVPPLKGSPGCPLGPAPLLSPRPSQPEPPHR
The description is as above.

The next assay has as its target VPS37C-GST (human) (UniProt A5D8V6). The description is as above.
The target of the next assay is T4, VPS25-GFP (human) (UniProt Q9BRG1).
T4 sequence: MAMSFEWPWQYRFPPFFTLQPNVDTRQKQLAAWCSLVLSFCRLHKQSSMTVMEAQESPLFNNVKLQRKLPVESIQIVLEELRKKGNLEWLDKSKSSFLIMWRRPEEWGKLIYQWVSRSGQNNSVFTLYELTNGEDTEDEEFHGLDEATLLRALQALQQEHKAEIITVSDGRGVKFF
The experiment in a line: pull-down; GFP-TRAP: 293T transfected with GFP-tagged ESCRT subunits or SEPT9 isoforms and AKTIP-Myc-Flag; lysis buffer 150mM NaCl, 50 mM Tris pH7.5, 1 mM EDTA, 1% glycerol, 1% NP40; magnetic agarose GFP-trap beads 10 minutes; Western blot with MYC antisera.

The target in the next assay is T5, VPS22-GFP (human) (UniProt Q96H20).
T5 sequence: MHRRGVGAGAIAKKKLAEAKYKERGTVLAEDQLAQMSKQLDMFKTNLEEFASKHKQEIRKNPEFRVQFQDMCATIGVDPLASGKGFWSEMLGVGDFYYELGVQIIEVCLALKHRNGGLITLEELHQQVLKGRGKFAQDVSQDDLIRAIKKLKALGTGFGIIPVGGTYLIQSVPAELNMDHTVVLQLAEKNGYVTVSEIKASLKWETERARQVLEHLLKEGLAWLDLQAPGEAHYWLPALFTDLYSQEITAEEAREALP
Described as above.

The next assay has as its target T6, VPS36-GFP (human) (UniProt Q86VN1).
T6 sequence: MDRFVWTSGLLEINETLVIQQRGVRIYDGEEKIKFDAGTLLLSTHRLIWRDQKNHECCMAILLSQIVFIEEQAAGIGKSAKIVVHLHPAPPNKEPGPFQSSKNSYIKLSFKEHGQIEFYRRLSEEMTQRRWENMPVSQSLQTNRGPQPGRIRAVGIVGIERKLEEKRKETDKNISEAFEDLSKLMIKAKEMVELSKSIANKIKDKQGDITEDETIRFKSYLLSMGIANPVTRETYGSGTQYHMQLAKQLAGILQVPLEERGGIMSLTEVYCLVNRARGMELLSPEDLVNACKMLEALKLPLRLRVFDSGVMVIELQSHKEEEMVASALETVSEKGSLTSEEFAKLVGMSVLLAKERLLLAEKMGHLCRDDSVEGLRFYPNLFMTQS
The assay is described as above.

Assay [4] has as its target T7, GFP-tagged SEPT9 isoform A (human) (UniProt Q9UHD8).
T7 sequence: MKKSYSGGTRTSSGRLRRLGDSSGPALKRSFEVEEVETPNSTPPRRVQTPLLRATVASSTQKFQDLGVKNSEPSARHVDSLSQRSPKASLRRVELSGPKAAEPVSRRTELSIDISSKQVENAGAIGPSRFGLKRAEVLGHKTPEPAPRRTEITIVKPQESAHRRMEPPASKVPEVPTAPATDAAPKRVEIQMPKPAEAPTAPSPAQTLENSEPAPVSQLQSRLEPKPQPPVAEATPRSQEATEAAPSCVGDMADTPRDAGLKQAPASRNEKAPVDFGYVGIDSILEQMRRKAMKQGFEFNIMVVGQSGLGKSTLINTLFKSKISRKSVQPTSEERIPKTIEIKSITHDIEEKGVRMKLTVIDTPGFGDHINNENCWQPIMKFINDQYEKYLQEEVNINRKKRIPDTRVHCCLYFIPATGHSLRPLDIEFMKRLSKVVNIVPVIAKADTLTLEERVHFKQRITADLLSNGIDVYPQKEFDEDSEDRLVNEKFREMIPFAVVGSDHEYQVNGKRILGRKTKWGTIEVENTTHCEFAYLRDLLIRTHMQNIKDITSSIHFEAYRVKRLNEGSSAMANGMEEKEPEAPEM
The description is as above.

Another assay deals with GFP-VPS28 (human) (UniProt Q9UK41). The description is as above.
Assay [5] has as its target GST-VPS28 (full length) (human) (UniProt Q9UK41). The experiment in a line: pull-down; GST pull-down: 293T co-transfected with GST-VPS28 (1000 ng), GFP-TSG101 (500 ng) and increasing amounts of HA-AKTIP plasmid (0, 50, 100, 500 or 1000 ng); glutathione-Sepharose beads; Western blot with GST, GFP, HA antisera.

B1: CEP55 fused to the VP16 activation domain (protein, UniProt Q53EZ4 1-464)
chain: MSSRSTKDLIKSKWGSKPSNSKSETTLEKLKGEIAHLKTSVDEITSGKGKLTDKERHRLLEKIRVLEAEKEKNAYQLTEKDKEIQRLRDQLKARYSTTTLLEQLEETTREGERREQVLKALSEEKDVLKQQLSAATSRIAELESKTNTLRLSQTVAPNCFNSSINNIHEMEIQLKDALEKNQQWLVYDQQREVYVKGLLAKIFELEKKTETAAHSLPQQTKKPESEGYLQEEKQKCYNDLLASAKKDLEVERQTITQLSFELSEFRRKYEETQKEVHNLNQLLYSQRRADVQHLEDDRHKTEKIQKLREENDIARGKLEEEKKRSEELLSQVQFLYTSLLKQQEEQTRVALLEQQMQACTLDFENEKLDRQHVQHQLHVILKELRKARNQITQLESLKQLHEFAITEPLVTFQGETENREKVAASPKSPTAALNESLVECPKCNIQYPATEHRDLLVHVEYCSK
Turning to B1, the binding result in [1] was “no binding”.

B2: MYC-AKTIP (pCMV6-Entry-AKTIP-Myc-Flag) (protein, UniProt Q9H8T0 1-292)
chain: T1 sequence
Take B2: the binding result was “binds” in assay [2]; “binds” in assay [3]; “no binding” with VPS37A-GST (human); “no binding” with VPS37B-GST (human); “no binding” with GST-IST1 (human); “no binding” with VPS37D-GST (human). In addition, the binding entry was “no binding” with VPS37C-GST (human); “no binding” with VPS25-GFP (human); “no binding” in the assay with VPS22-GFP (human); “no binding” with VPS36-GFP (human); “no binding” in [4]; “binds” in the assay with GFP-VPS28 (human).

B3: HA-AKTIP (full length, pCR3.1) (protein, UniProt Q9H8T0 1-292)
chain: T1 sequence
B3: the binding entry in assay [5] and in assay [3] was “binds” throughout.

B4: GFP-AKTIP UEV (78-220 aa) (domain or fragment, UniProt Q9H8T0 78-220)
chain: SLLAEFTLVVKQKLPGVYVQPSYRSALMWFGVIFIRHGLYQDGVFKFTVYIPDNYPDGDCPRLVFDIPVFHPLVDPTSGELDVKRAFAKWRRNHNHIWQVLMYARRVFYKIDTASPLNPEAAVLYEKDIQLFKSKVVDSVKVC
With B4, the binding result in [3] is listed as “binds”.
